Test results from PubChem BioAssay AID504832 (National Center for Advancing Translational Sciences (NCATS), 2011).
Hit rate of the full screen: of about 310,000 compounds, about 18,000 (5.8%) were called active. This list was built around the results that the source calls inconclusive (neither active nor inactive); the mix of calls is not that of the screen. The call rests on the fitted dose curve; in most records, active means well fitted inhibition curve with a large enough effect; inconclusive means small, poorly fitted or top-dose-only effect, or another doubt; inactive means no such curve, though single readings can be large or run the other way. No potency is given beside an inconclusive call; the fits are too rough.

experiment: Primary qHTS for delayed death inhibitors of the malarial parasite plastid, 48 hour incubation; details: P. falciparum luciferase growth in erythrocytes; series mostly up to 28.7 µM; activity change, negative = inhibition: at the top concentration
In short: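 Cell-based growth assay: transgenic P. falciparum expressing firefly luciferase, cultured in red cells within RPMI 1640 containing 0.5% w/v Albumax, 24 mM bicarbonate and gentamycin. A drop in luciferase activity indicates inhibition.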
On the % scale 0 is the no-effect control and ±100 the full control effect; potency means the concentration at half of the fitted maximal effect; tags describe the fitted curve by direction and shape.

SMILES	Potency	activity change, negative = inhibition
COc1ccc(CN(Cc2ccccn2)C(=O)CN2C(=O)COc3ccccc32)cc1	inconclusive [inhibitor, partial curve]	
Cc1cc(C)cc(OCCCC(=O)O)c1		inactive: -2.62%
CCN(CC)S(=O)(=O)c1cc(NC(=O)c2cc(-c3ccccn3)nc3ccccc23)ccc1C	active: 9.28 µM	
CCOC(=O)C1CCN(CC(O)COc2ccc(S(=O)(=O)N3CCCC3)cc2[N+](=O)[O-])CC1 (stereo not given)	active: 8.28 µM	
Cn1c(SCC(=O)N2CCN(c3cccc(Cl)c3)CC2)nnc1-c1ccncc1		inactive: 5.29%
COc1cc2c(cc1OC)C(c1cccc([N+](=O)[O-])c1)N(C(=O)c1ccc(F)cc1)CC2 (stereo not given)	inconclusive [inhibitor, single point]	
COc1ccccc1/C=N/N1C(=O)C(CC(=O)Nc2ccc([N+](=O)[O-])cc2OC)SC1=Nc1cccc(C)c1C (stereo not given)	active: 3.7 µM	
O=C1Nc2ccccc2CCC1Sc1nnc(-c2ccc(Cl)cc2)s1 (stereo not given)	active: 13.1 µM	
COc1cc(/C=C/C(=O)OCC(=O)NCc2ccco2)cc(OC)c1OC	inconclusive [inhibitor, partial curve, poor fit]	
Cc1c(C)c2ccc(OC(C)C(=O)NCCc3c[nH]c4ccccc34)cc2oc1=O (stereo not given)	inconclusive [inhibitor, partial curve, poor fit]	
CCCCNC(=S)N/N=C/c1cccc(OCC)c1O	inconclusive [inhibitor, partial curve, poor fit]	
COCCCN1C(=O)C(=O)/C(=C(/O)c2ccc(OCC(C)C)cc2C)C1c1cccnc1 (stereo not given)	inconclusive [inhibitor, partial curve, poor fit]	
O=[N+]([O-])c1ccc(C2[C@H]3C(c4ccccc4)=NC4(CCCCC4)N23)cc1 (stereo not given in full)	inconclusive [inhibitor, single point]	
CCOC(=O)N1CCN(C(=O)C(NS(=O)(=O)c2cccc3nsnc23)c2ccccc2)CC1 (stereo not given)	inconclusive [inhibitor, partial curve]	
COc1ccc(/C=C/C(=O)OCC(=O)NC2CCS(=O)(=O)C2)cc1 (stereo not given)	inconclusive [inhibitor, partial curve, poor fit]	
CC(C)(C)NC(=O)C(c1ccco1)N(Cc1ccc(F)cc1)C(=O)c1snc(C(N)=O)c1N (stereo not given)	inconclusive [inhibitor, single point]	
O=C1c2ccccc2C(=O)N1CCOc1ccccc1Cl		inactive: 1.31%
Cc1nc(NCCc2ccc(F)cc2)c(C#N)c(C)c1[N+](=O)[O-]	inconclusive [inhibitor, partial curve]	
C=CCNC(=O)COC(=O)c1ccc(Cl)c(S(N)(=O)=O)c1	inconclusive [inhibitor, partial curve, poor fit]	
Cc1ccc(-c2nn(C)c(=O)c3ccccc23)cc1CNC(=O)c1ccccc1	inconclusive [inhibitor, single point]	

SMILES	Potency	activity change, negative = inhibition
COc1ccc(N2CCN(c3ccc4nnc(CCC(=O)Nc5ccc(C)cc5)n4n3)CC2)cc1	inconclusive [inhibitor, partial curve, poor fit]	
O=C(CCCn1c(=O)c2cccn2c2cccnc21)N1CCN(c2ccccc2F)CC1	inconclusive [inhibitor, partial curve, poor fit]	
CC(OC(=O)CCN=C1NS(=O)(=O)c2ccccc21)C(=O)N(C)C1CCCCC1 (stereo not given)	inconclusive [inhibitor, single point]	
CC(=O)Nc1ccc(S(=O)(=O)N(C)CC(=O)OCC(=O)N2CCCC2=O)cc1	inconclusive [inhibitor, partial curve, poor fit]	
CCOC(=O)c1ccc(NC(=S)N(CCN2CCCCCC2)Cc2ccco2)cc1	inconclusive [inhibitor, single point]	
CC(=O)N1CCc2cc(S(=O)(=O)CCC(=O)N3CCN(C(=O)c4ccco4)CC3)ccc21	inconclusive [inhibitor, partial curve, poor fit]	
COC(=O)c1ccc(NC(=O)c2ccccc2NS(=O)(=O)c2ccccc2)cc1	inconclusive [inhibitor, single point]	
O=S(=O)(NCC1CCC(NS(=O)(=O)c2c(F)cccc2F)CC1)c1ccc2c(c1)OCCO2 (stereo not given)	inconclusive [inhibitor, partial curve, poor fit]	
O=C(NCCc1c[nH]c2ccccc12)C(=O)NCC1OCCCN1S(=O)(=O)c1cccs1 (stereo not given)	inconclusive [inhibitor, partial curve, poor fit]	
COc1ccc(CC(=O)NCCS(=O)(=O)N2CCN(c3ccc(F)cc3)CC2)cc1OC	inconclusive [inhibitor, partial curve, poor fit]	
Cc1cc(C(=O)CSc2nnc(-c3ccc(F)cc3)o2)c(C)n1CC1COc2ccccc2O1 (stereo not given)	inconclusive [inhibitor, partial curve]	
N=c1c(S(=O)(=O)c2ccc(Cl)cc2)cc2c(=O)n3ccccc3nc2n1C1CCCCC1		inactive: 51.8%
COc1cc2ccccc2cc1C(=O)Nc1ccc(CN2CCOCC2)cc1		inactive: 23.8%
CCOC(=O)c1ccc(NC(=O)Cn2ncc(Cl)c(Cl)c2=O)cc1	inconclusive [inhibitor, partial curve, poor fit]	
CCOC(=O)C1CCCN(C(=O)CN2C(=O)COc3ccc(C(C)(C)C)cc32)C1 (stereo not given)	inconclusive [inhibitor, partial curve]	
Cc1ccc(-n2cc(C(=O)c3cc(Cl)ccc3O)cc(C#N)c2=O)cc1	active: 3.29 µM	
CCC(=O)Nc1cc(=O)[nH]c2nc(-c3ccc(Cl)cc3)nn12	active: 0.262 µM	
Cc1ccc(C(=O)N/C(=C/c2cccs2)C(=O)NCCc2c[nH]c3ccccc23)cc1	inconclusive [inhibitor, partial curve]	
O=C(CSc1nnc(-c2ccccc2)c(-c2ccccc2)n1)Nc1ccc(Br)cn1	inconclusive [inhibitor, single point]	
O=C(c1ccc([N+](=O)[O-])o1)N1CCN(Cc2ccccc2)CC1	inconclusive [inhibitor, partial curve]	

SMILES	Potency	activity change, negative = inhibition
COc1ccc(-n2c(C)cc(/C=C3\C(=N)N4N=C(CC(=O)N5CCOCC5)SC4=NC3=O)c2C)c(OC)c1	inconclusive [inhibitor, full curve]	
CCOC(=O)c1ccc(N=c2sc(C(=O)OC)cc(=O)n2-c2ccc(C(=O)OCC)cc2)cc1	inconclusive [inhibitor, partial curve, poor fit]	
COc1ccc(NS(=O)(=O)c2ccc(C)c(NC(=O)CN3C(=O)NC4(CCCC4)C3=O)c2)cc1	inconclusive [inhibitor, single point]	
CC(C(=O)N1CCCc2ccccc21)N1CCN(S(=O)(=O)c2ccccc2F)CC1 (stereo not given)	inconclusive [inhibitor, partial curve, poor fit]	
COc1cc(C(=O)OCC(=O)NCc2ccc(F)cc2)cc(NC(=O)c2cccs2)c1OC	inconclusive [inhibitor, single point]	
CC(NC(=O)c1ccc(C(F)(F)F)cc1)C(c1ccccc1)N1CCOCC1 (stereo not given)	inconclusive [inhibitor, single point]	
Cc1ccc(S(=O)(=O)N(C)Cc2ccc(C(=O)N/N=C3\CC(=O)CC(C)(C)C3)cc2)cc1	inconclusive [inhibitor, single point]	
COc1cc2c(cc1OC)C(c1ccc3c(c1)OCO3)C1=C(CC(C)(C)CC1=O)N2 (stereo not given)	inconclusive [inhibitor, full curve, poor fit]	
COC(=O)c1ccc(C2C(C(=O)c3cc4ccccc4o3)=C(O)C(=O)N2c2cc(C)on2)cc1 (stereo not given)	active: 9.28 µM	
CN(C[C@H](Cc1ccccc1)N(C[C@H](c1ccccc1)N(CCc1ccccc1)N=O)N=O)N=O	inconclusive [inhibitor, partial curve]	
CCCC(=O)Nc1ccccc1NC(=O)CN(C)S(=O)(=O)c1ccc(C)cc1	inconclusive [inhibitor, partial curve, poor fit]	
CCOC(=O)CCCOC(=O)c1ccc(S(=O)(=O)N(C)C)cc1	inconclusive [inhibitor, single point]	
CCCCCCCNC(=O)c1cc(-c2ccncc2)nc2ccccc12	inconclusive [inhibitor, single point]	
O=C(CSc1nnc(-c2cccnc2)n1-c1ccccc1)Nc1ccccc1	inconclusive [inhibitor, single point]	
CC(C)(C)c1ccc(C(=O)NCc2nnc(SCC(=O)NC3CCCCC3)o2)cc1		inactive: -20.5%
O=C(Cn1cc(/C=N/O)c2ccccc21)N1CCOCC1		inactive: 13.5%
COc1ccc(C(=O)/C=C/c2cn(CC(O)CN3CCOCC3)c3ccccc23)cc1 (stereo not given)	inconclusive [inhibitor, single point]	
CNc1ncnc2c1ncn2[C@@H]1O[C@H](CO)[C@@H](O)[C@H]1O	inconclusive [inhibitor, single point]	
COCCNC(=O)c1c(N)n(Cc2ccco2)c2nc3ccccc3nc12	active: 13.1 µM	
Cc1cccc(C)c1NC(=O)c1ccc(CN2CCc3ccccc3C2)cc1	inconclusive [inhibitor, partial curve]	
